PubChem BioAssay AID493208 (National Center for Advancing Translational Sciences (NCATS), 2011)
Screen size: about 44,000 compounds; about 340 (0.77%) were called active. Not shown: some 5% with an inconclusive outcome. The call rests on the fitted dose curve; in most records, active means well fitted inhibition curve with a large enough effect; inconclusive means small, poorly fitted or top-dose-only effect; inactive means flat fitted curve, though single readings scatter. The list shows a part of the results.

Assay: Acumen qHTS Assay for Inhibitors of the mTORC1 Signaling Pathway in MEF (Tsc2-/-, p53-/-) Cells: Sytravon;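 further: plate controls were DMSO for no effect and rapamycin for full effect; nearly all actives have a fitted effect of over 50% in size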
Conditions: phospho-rpS6 immunofluorescence/PI, 24 h; series mostly up to 38.3 µM; activity change, negative = inhibition: at the top concentration
Outline: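 Readout is phospho-S6 Alexa 488 signal normalized to PI per well, reported as % active cells with thresholds set from rapamycin (7.5 nM) and DMSO controls. Cells: Tsc2-/-, p53-/- MEFs, 24 hrs compound at 37 C; PI cell number serves as viability.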

Activity change, negative = inhibition, inactive:
COc1ccc(NS(=O)(=O)c2ccc3c(c2)CCN3C(=O)CCC(=O)O)cc1Cl 1.67%
CCc1ccc(-n2c(=O)c3sc4ccccc4c3n(CC(=O)NC3CCCCC3)c2=O)cc1 0.223%
CC(C)CCNC(=O)CSc1nc2ccccc2nc1Cc1ccccc1 -15.9%
CCOC(=O)c1ccc2c(c1)N(C(CC)C(=O)Nc1ccccc1OC)C(=O)c1ccccc1S2 (stereo unspecified) 0%
Cc1ccc(NC(=O)Cn2nc(-c3ccncc3)ccc2=O)cc1Cl -8.13%
Cc1cc(NC(=O)CCS(=O)(=O)c2cc(Br)cc3c2N(C(=O)C2CC2)CC3)ccc1Br 2.95%
COc1cc2c(cc1OC)C(COc1ccc3c(C)cc(=O)oc3c1)N(C(=O)C(C)C)CC2 (stereo unspecified) -21.7%
CCOC(=O)c1nc(Nc2ccc(C(C)=O)cc2)c2ccccc2n1 -15.1%
O=C(Nc1c(C(=O)Nc2ccc(F)cc2)oc2ccccc12)c1cc2ccccc2o1 2.35%
COc1ccc(Cn2c(=O)c3cccnc3n(CC(=O)Nc3ccc(C)c(F)c3)c2=O)cc1 -6.85%
Cc1cc(Oc2c(C(F)(F)F)oc3c(CN4CCC(C)CC4)c(O)ccc3c2=O)cc(C)c1Cl -1.39%
O=C(Cn1c(=O)oc2cc(S(=O)(=O)N3CCCCCC3)ccc21)NCc1ccccc1Cl -16.8%
Cc1cccc(-n2ccnc2SCC(=O)Nc2ccc(F)cc2F)c1C -6.42%
Cc1ccc(C)c(CNC(=O)c2ccc3c(c2)nc2n3CCCCC2)c1 -14.2%
C[C@H](NC(=O)OC(C)(C)C)c1nnc(SCc2c(F)cccc2Cl)o1 -17.9%
COCCCNC(=O)c1cc2c(=O)oc3ccc(C)cc3c2s1 -5.85%
O=C(c1ccc(CSc2nc3ccncc3n2Cc2ccc(F)cc2)cc1)N1CCCCCC1 0.702%
Cc1ccc(-c2nc3c4ccccc4[nH]c(=O)n3n2)cc1 -4.01%
CCc1nc2ccc(C(=O)N3CCN(c4cccc(C)c4C)CC3)cc2nc1CC 3.9%
O=C1CC(c2cccc(O)c2)c2c(nc(SCc3ccccc3F)[nH]c2=O)N1 (stereo unspecified) 1.13%
CCOc1ccc(C(=O)N(Cc2sccc2C)C2CCS(=O)(=O)C2)cc1 (stereo unspecified) -1.31%
CCOc1ccc(-c2cc(OC(=O)c3ccc(OC)cc3)c3c(C)oc(C)c3c(=O)c2)cc1 -2.64%
CCc1ccccc1NC(=O)Nc1ccc2c(c1)N(CC)C(=O)c1ccccc1S2 -7.11%
CCOc1ccccc1CNC(=O)c1cc2n(n1)CCCN(Cc1ccc(C)cc1)C2=O 0%
CCOc1ccc(NC(=O)CSc2nc(C)c(C(=O)Nc3ccccc3)c(-c3ccc(Cl)cc3)c2C#N)cc1 15.5%
CCc1cccc(-n2c(C)nc3c(cnn3-c3ccc(C)c(C)c3)c2=O)c1 -6.39%
O=C(Nc1ccc(OC(F)(F)F)cc1)c1nc2ccccc2nc1N1CCCCC1 -4.66%
COc1cccc(NC(=O)CSc2nc3cc(OC)c(OC)cc3c3nc(-c4ccccc4)nn23)c1 1.1%
CCn1c2ccccc2c2cc(CN3CCN(Cc4ccccc4Cl)CC3)ccc21 4.29%
COc1cc(OC)c(NC2(c3ccccc3)C(=O)c3ccccc3C2=O)cc1Cl 2.12%
CCOC(=O)c1ccc(NC(=O)/C(C#N)=C/c2ccc(OC)cc2)cc1 -5.6%
CCc1ccc(-n2c(=O)c3c(C)c(C)sc3n(CC(=O)NCc3ccc(C)cc3)c2=O)cc1 1.47%
CCCCc1nn2c(=O)cc(COC(=O)c3cccc(NC(=O)CCc4ccccc4)c3)nc2s1 1.16%
CCCN(CCC)C(=O)Cn1c(=O)n(-c2ccccc2)c(=O)c2c3c(sc21)CCCC3 0.889%
N#C/C(=C/c1ccc(Cl)cc1)c1nc(-c2ccc(Br)cc2)cs1 2.49%
O=S(=O)(NCc1nc2cccnc2n1Cc1ccccc1)c1ccc2c(c1)CCCC2 -2.13%
Cc1ccc(CSc2oc(-c3ccco3)nc2S(=O)(=O)c2ccc(C)cc2)cc1 -24%
COc1cc(/C=C(\C#N)c2nc3ccccc3[nH]2)cc(Cl)c1OCc1ccccc1Cl -29.7%
Cc1ccc(NS(=O)(=O)c2ccc3[nH]c(=O)oc3c2)c(C)c1 0.654%
COc1cc2nc(SCC(=O)Nc3c(C)cc(C)cc3C)n3nc(CCn4c(C)nc5ccccc54)nc3c2cc1OC 0.865%
Cc1c(NC(=O)Nc2ccc(Br)cc2F)sc2nc3n(c(=O)c12)CCC(C)CC3 (stereo unspecified) -0.463%
CCOC(=O)c1c(S(=O)(=O)NCC(=O)N2CCN(c3ccccc3)CC2)c(C)n(C)c1C -5.16%
Fc1ccc(C(NCCc2ccc(Cl)cc2)c2nnc(-c3ccccc3)o2)c(Cl)c1 (stereo unspecified) -3.45%
COc1ccccc1CNC(=O)CCn1c(=O)c2ccccc2n(CC(=O)Nc2ccc(C)cc2Cl)c1=O -3.85%
CCc1cccc(C)c1NC(=O)c1cc(S(=O)(=O)NCc2ccccc2Cl)ccc1F -0.201%
CC(=O)NCC(c1ccc2c(c1)OCO2)N1CCN(c2ccccc2)CC1 (stereo unspecified) -0.87%
CCCn1c2ccccc2c2cnn(CC(=O)N(C)c3ccccc3CC)c(=O)c21 -1.48%
Cn1c(=O)c(=O)n(C)c2cc(NC(=O)c3cccc(F)c3)c(Cl)cc21 0.643%
CCCSCCCNC(=O)C1CCCN(c2nn3cc(-c4ccc(OC)cc4)nc3s2)C1 (stereo unspecified) -1.96%
CCOc1ccccc1CNC(=O)CCCn1ncn2c(cc3occc32)c1=O 0.4%
CCOc1ccc(C(=O)c2cn(CC(=O)Nc3ccc(F)cc3)c3cc4c(cc3c2=O)OCO4)cc1 -18.2%
COc1ccc(N(CC(=O)NCc2ccccc2Cl)S(=O)(=O)c2c(C)nn(C)c2C)cc1 -20.8%
COc1ccc(CCNC(=O)Cn2c(=O)nc(-c3ccccc3)c3ccccc32)cc1OC 8.83%
Cc1ccc2cccc(NC(=O)COc3cc(C)c(Cl)c(C)c3)c2n1 -8.97%
CN(C)CCCN(C(=O)c1ccc(Br)s1)c1nc2ccc(F)cc2s1 -3.85%
CCCCN(CC)CCNC(=O)CN1C(=O)COc2ccc(S(=O)(=O)N3CCCC3)cc21 0.91%
Cc1ccc(CCNC(=O)CCn2nc(-c3ccccc3)ccc2=O)cc1 5.36%
Cc1ccccc1NC(=O)N1CCc2c(sc3c2CCCC3)C1c1ccccc1 (stereo unspecified) 0%
COc1ccc(NC(=O)c2ccc3nc(CCc4ccccc4)oc3c2)c(OC)c1 2.91%
CCOc1ccc(C(=O)Nc2c(C(=O)c3ccc(OC)cc3)oc3ccccc23)cc1 -2.49%
O=C(NCCc1ccccc1)c1ccc(Cn2c(SCc3cccc(F)c3)nc3cccnc32)cc1 -22.8%
CCn1c(NCc2ccc(OC)cc2)nc2ccccc21 -10.2%
CCS(=O)(=O)c1ncc(N(Cc2ccccc2)Cc2ccco2)c(C(=O)Nc2ccc(C)c(C)c2)n1 -0.379%
COCCNC(=O)CCc1c(C)nc2c(-c3ccc(F)cc3)c(C)nn2c1C 0.705%
COc1cc(C(CC(=O)Nc2ccc(F)cc2F)N2Cc3ccccc3C2=O)cc(OC)c1OC (stereo unspecified) 0.0076%
COc1ccc(CCNC(=O)CCCCn2c(=O)c3ccccc3n(Cc3ccccc3C)c2=O)cc1OC -6.1%
CCCCCn1cc2c(c1-c1ccc(Br)cc1)c(=O)n(C)c(=O)n2C -1.7%
CCC(=O)Nc1ccc(CC)cc1-c1nc2ccccc2n(CC(=O)Nc2cccc(Cl)c2)c1=O -2.02%
COc1cccc(NC(=O)Cn2nnc(-c3nc(-c4ccccc4)no3)c2N)c1 -27.1%
O=C(Cn1c(=O)oc2cc(Cl)ccc21)Nc1cccc(C(F)(F)F)c1 -17.7%
Cc1nc2ncnn2c(C)c1CCC(=O)N1CCN(c2ccccc2)CC1 -3.92%
COc1ccc(OC)c(NC(=O)c2cc3cc(C)ccc3n2C)c1 -4.13%
CCc1ccccc1NC(=O)Cn1c(=O)n(-c2ccc(C)cc2)c(=O)c2c1c1cc(C)ccc1n2C -13.8%
Cc1ccccc1CSc1nc2cc(C(=O)NC3CCCC3)ccc2c(=O)n1Cc1ccccc1 1.87%
CCN(Cc1ccccc1)C(=O)Cn1cc(S(=O)(=O)Cc2cccc(Cl)c2)c2ccccc21 -9.84%
O=C(CCCn1c(=O)c2cccn2c2ccc(F)cc21)NCc1ccc(Cl)cc1 -2.24%
COC(=O)CC1Oc2ccccc2-n2cc(-c3ccccc3)nc21 (stereo unspecified) 5.29%
Cc1ccc(-n2nc(CO)c(C(=O)NC(C)CCCc3ccccc3)n2)cc1C (stereo unspecified) -0.204%
CC1CCN(C(=O)CSc2c(C(C)C)cnc3c2c(=O)n(C)c(=O)n3C)CC1 0%
CCOc1ccc(CNS(=O)(=O)c2ccc3[nH]c(=O)ccc3c2)cc1 -4.27%
CCC(=O)Nc1ccc2nc(SCCOc3ccccc3)sc2c1 -4.34%
CCCCOc1ccc(CNC(=O)c2ccc(NC(=O)N3CCCCc4ccccc43)cc2)cc1 -9.59%
CC(=O)Nc1nonc1-c1nnc(SCC(=O)Nc2ccccc2)n1-c1ccccc1 -1.83%
COC(=O)c1ccc(-n2c(CCC(=O)O)ccc2-c2ccc(C)cc2)cc1 -1.89%
CCOC(=O)Cn1c(=O)n(CC2CCCO2)c2nc(-c3cccc(C)c3)nc(C(N)=O)c21 (stereo unspecified) -5.77%
Cc1ccc(NC(=O)CSc2ncn[nH]2)cc1C -0.703%
CNS(=O)(=O)c1cn(CC(=O)Nc2cccc(OC)c2)cc1S(=O)(=O)NC -5%
Cc1c(Cl)cccc1NC(=O)c1noc2c1CCCC2 0.459%
CCn1c(C)c(C)c2cc(C(=O)NCCCN3CCCCC3)ccc21 -2.41%
Cc1ccc(C)c(N2CCN(Cc3nnc(-c4ccc5c(c4)OCO5)o3)CC2)c1 2.49%
Cn1c(=O)oc2cc(S(=O)(=O)NC(Cc3ccccc3)C(=O)NCc3ccc(F)cc3)ccc21 (stereo unspecified) -0.849%
COc1ccccc1OC(C)C(=O)Nc1c(C(=O)c2ccc(Cl)cc2)oc2ccccc12 (stereo unspecified) 1.48%
CCC(=O)N1c2ccccc2CC1C(=O)NCCN1CCN(c2cccc(C(F)(F)F)c2)CC1 (stereo unspecified) 22.3%
COc1cccc(CNC(=O)c2ccc3c(c2)nnn3C2CCCC2)c1 4.23%
Cc1ccc(N(CC(=O)NCc2ccc(F)cc2)S(=O)(=O)c2c(C)nn(C)c2C)cc1 -4.14%
CCCCSCCCNC(=O)c1cn(C)c2ccc(S(=O)(=O)N3CCCCC3)cc2c1=O -2.62%
